# Reference: PubChem BioAssay AID624417 (National Center for Advancing Translational Sciences (NCATS), 2012)
# Hit rate of the full screen: of about 410,000 compounds, about 6,400 (1.6%) were called active. This list was built around the results that the source calls inconclusive (neither active nor inactive); the mix of calls is not that of the screen. Calls come from the whole dose curve; as a rule, active = well fitted inhibition curve with a large enough effect; inconclusive = small, poorly fitted or top-dose-only effect; inactive = no such curve, though single readings can be large or run the other way. No potency is given beside an inconclusive call; the fits are too rough.
# Target: Glucagon-like peptide 1 receptor (Homo sapiens) (UniProt P43220)
# Assay: qHTS of GLP-1 Receptor Inverse Agonists (Inhibition Mode); note: nearly all actives have a fitted effect of over 55% in size
# Details: HEK293 GLP-1R CRE-luciferase, luminescence, 24 h, GLP-1R form is constitutively active; series mostly up to 38.3 µM
# In short: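 HEK293 cells stably co-expressing a cAMP-responsive luciferase reporter and constitutively active GLP-1R were seeded, incubated 12 h, then exposed to compounds for 24 h at 37 C. Luminescence was read 12 min after detection reagent; inverse agonists lower signal.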
# Potency is the fitted concentration of half-maximal effect; tags give direction and shape of the fitted curve.
# Sequence of UniProt P43220 (P43220 whole entry, looked up): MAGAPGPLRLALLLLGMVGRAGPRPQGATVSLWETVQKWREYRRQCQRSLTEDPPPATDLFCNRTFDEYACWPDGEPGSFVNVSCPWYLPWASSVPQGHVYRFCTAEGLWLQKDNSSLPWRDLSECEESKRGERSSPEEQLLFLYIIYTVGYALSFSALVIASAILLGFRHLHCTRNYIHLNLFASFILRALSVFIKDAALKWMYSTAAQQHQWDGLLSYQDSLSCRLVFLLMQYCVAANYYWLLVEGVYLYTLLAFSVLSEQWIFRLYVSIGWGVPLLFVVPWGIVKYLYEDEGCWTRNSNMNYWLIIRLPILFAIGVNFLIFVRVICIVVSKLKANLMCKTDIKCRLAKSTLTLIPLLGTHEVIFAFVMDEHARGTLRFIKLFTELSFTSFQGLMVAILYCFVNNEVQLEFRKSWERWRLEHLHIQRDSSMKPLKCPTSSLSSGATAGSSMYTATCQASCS
row,SMILES,Potency
1,CCOc1ccc(-c2c(C)nn3c(C)c(C(=O)NC(C)c4ccccc4)cnc23)cc1OCC (stereo not drawn),inactive
2,CCc1ccc(CNC(=O)c2cc3c(C)nc4ccccc4c3o2)cc1,"inconclusive [inhibitor, single point]"
3,CCCCC(=O)Nc1cc(-c2cn3cccnc3n2)ccc1C,inactive
4,COC(=O)[C@@]12C[C@@H](CC(=O)NCc3ccccc3)C(=O)N(Cc3ccc4c(c3)OCO4)C1=CCC(C)(C)C2,"inconclusive [inhibitor, single point]"
5,CC(C)(C)[C@H]1C=C(C(=O)N2CCN(Cc3ccccc3)CC2)O[C@@H](OCc2ccc(CO)cc2)C1,"inconclusive [inhibitor, partial curve, poor fit]"
6,O=C1/C(=C/c2ccc(F)cc2)Oc2cc(OC(=O)N3CCOCC3)ccc21,inactive
7,O=C(CNS(=O)(=O)c1ccccc1)N1CCc2ccccc2C1,inactive
8,Cc1nc(Sc2nnnn2C)c2c3c(sc2n1)CCC3,"inconclusive [inhibitor, full curve, poor fit]"
9,CN(Cc1cc(Cl)cc(Cl)c1)[C@H]1C[C@H]2c3[nH]c4ccccc4c3CCN2C(=O)[C@H]1CO,"inconclusive [inhibitor, partial curve, poor fit]"
10,O=C(NC1CCCC1)c1cccc(Oc2ccccc2)c1,active: 10 µM
11,CC1CCN(C(=O)c2ccc(CSc3nc4ccncc4n3Cc3ccc(F)cc3)cc2)CC1,"inconclusive [inhibitor, single point]"
12,CC(C)c1nc(N2CCOCC2)c(C#N)c2c1CCC2,inactive
13,CCCCCCSc1ccc([C@@H]2[C@H]3C(=O)N(C)C(=O)[C@H]3[C@]3(C(=O)OC)CCCCN23)cc1OC,"inconclusive [inhibitor, single point]"
14,COc1ccc(Cl)cc1NC(=O)N1CCC2(CC1)Oc1ccccc1C(=O)N2Cc1ccc(F)cc1,inactive
15,Cc1c(Br)cccc1NC(=O)C1(C)CCN1Cc1ccc(OC(C)C)cc1 (stereo not drawn),"inconclusive [inhibitor, single point]"
16,Cc1ccc(-n2c(C)cc(C(=O)CN3C(=O)C(=O)N(C4CCCC4)C3=O)c2C)cc1,"inconclusive [inhibitor, single point]"
17,CCNC(=S)Nc1ccc2c(c1)c(=O)n(C)n2-c1ccc(C(C)(C)C)cc1,"inconclusive [inhibitor, single point]"
18,CCOC(=O)c1cnn(-c2cccc(Cl)c2)c1C1CCN(C(=O)OC(C)(C)C)CC1,inactive
19,Clc1ccc2c(NCc3ccccc3)ccnc2c1,"inconclusive [inhibitor, single point]"
20,COC(=O)C1=CN(c2ccc(OC)cc2)C=C(C(=O)OC)C1c1ccc(C)c([N+](=O)[O-])c1,"inconclusive [inhibitor, partial curve, poor fit]"
21,O=C(N/N=C/c1ccccc1F)c1ccc(COc2ccccc2Cl)o1,"inconclusive [inhibitor, single point]"

row,SMILES,Potency
1,COc1ccc(-c2csc(=NCCO)n2-c2ccccc2)cc1,"inconclusive [inhibitor, partial curve, poor fit]"
2,CSc1ncc2c(n1)-c1ccccc1N(Cc1ccccc1C)S2(=O)=O,inactive
3,Cc1cc(C)c2nc(NNC(=O)c3ccc(S(=O)(=O)N4CC(C)CC(C)C4)cc3)sc2c1 (stereo not drawn),inactive
4,O=C(CCn1ccnc1)Nc1ccc2ccccc2c1,inactive
5,CCN1CCN(CC(=O)Nc2cc(C)c(C)cc2[N+](=O)[O-])CC1,"inconclusive [inhibitor, partial curve, poor fit]"
6,CCOC(=O)C1CCCN(C(=O)c2ccc(Cl)c(S(=O)(=O)N3CCCCCC3)c2)C1 (stereo not drawn),"inconclusive [inhibitor, single point]"
7,CN(CC(=O)Nc1ccc(Cl)c(C(F)(F)F)c1)C(=O)/C=C/c1cccs1,"inconclusive [inhibitor, partial curve, poor fit]"
8,COc1ccccc1N(CC(=O)NCCSc1ccccc1)S(=O)(=O)c1ccc(C)cc1,"inconclusive [inhibitor, single point]"
9,COc1cccc(-c2nn(C)c3sc(C(=O)N4CCN(c5cccc(C(F)(F)F)c5)CC4)cc23)c1,"inconclusive [inhibitor, single point]"
10,O=C(NCCCN1CCOCC1)c1ccc(S(=O)(=O)Nc2ccccc2F)cc1,"inconclusive [inhibitor, partial curve, poor fit]"
11,O=C1CN(C(=O)COc2ccc(Cl)c(Cl)c2)c2ccccc2N1,"inconclusive [inhibitor, single point]"
12,COc1ccccc1CNC(=O)CSc1ncc(C(=O)Nc2ccccc2)c(=O)n1C,inactive
13,Cc1cccc(C)c1NC(=O)CN(C)CC(=O)Nc1ccccc1Oc1ccccc1,"inconclusive [inhibitor, partial curve, poor fit]"
14,Cc1ccc(C(C)C)c(OCC(=O)NNC2=CC(=O)CC(C)(C)C2)c1,"inconclusive [inhibitor, single point]"
15,CN1CCN(CC(=O)N2CCn3c4c(c5cc(C6CCCCC6)ccc53)CCCC42)CC1 (stereo not drawn),"inconclusive [inhibitor, partial curve, poor fit]"
16,O=C(C1CCCC1)N1CCCC(Nc2ccccc2)C1 (stereo not drawn),"inconclusive [inhibitor, single point]"
17,COc1cc(C(=O)NCC2(c3ccccc3)CCCC2)cc(OC)c1OC,"inconclusive [inhibitor, partial curve]"
18,O=C(NCc1cccs1)C1CC(c2ccccc2O)=NO1 (stereo not drawn),"inconclusive [inhibitor, full curve, poor fit]"
19,CCc1ccc(-c2nc3cc(NC(=O)c4ccc(F)cc4)ccc3o2)cc1,inactive
20,COc1ccc(CC(=O)N2CCN(S(=O)(=O)c3cc(Cl)ccc3Cl)CC2)cc1,"inconclusive [inhibitor, single point]"
21,Cc1ccc(Nc2c3c(nc4ccccc24)CCC3)cc1F,"inconclusive [inhibitor, partial curve, poor fit]"

row,SMILES,Potency
1,O=C(CCC1N=C2c3ccccc3N=C(SCc3cccc(Cl)c3)N2C1=O)NCc1ccco1 (stereo not drawn),"inconclusive [inhibitor, single point]"
2,COc1ccc(-n2nc(C(=O)NCC(=O)Nc3cc(OC)c(OC)c(OC)c3)c3ccccc3c2=O)cc1Cl,"inconclusive [inhibitor, partial curve, poor fit]"
3,CC(=O)C1=NN(c2ccc(Cl)cc2)C(c2ccc3c(c2)OCO3)N(C(C)=O)N1C (stereo not drawn),"inconclusive [inhibitor, partial curve, poor fit]"
4,COc1ccc2nc(C(F)(F)Cl)c(C#N)c(N)c2c1,"inconclusive [inhibitor, single point]"
5,COc1ccc(OC)c(S(=O)(=O)NCCc2sc(C)nc2C)c1,inactive
6,CCc1ccccc1NC(=O)CN(c1ccc(OC)cc1OC)S(=O)(=O)c1ccccc1,"inconclusive [inhibitor, single point]"
7,CN(CCOc1ccc(Cl)cc1)C(=O)CN1C(=O)NC2(CCCC2)C1=O,"inconclusive [inhibitor, single point]"
8,Cc1ccc(NC(=O)c2ccc(Cl)c(S(=O)(=O)N3CCc4ccccc43)c2)nc1,"inconclusive [inhibitor, partial curve, poor fit]"
9,CC1=NN(C(=O)c2ccccc2Cl)C(O)(c2cccnc2)C1 (stereo not drawn),inactive
10,Cc1nc(S(=O)(=O)NC2CCCCC2)c(C#N)c(C)c1Cl,"inconclusive [inhibitor, partial curve, poor fit]"
11,CC[C@H]1C(c2ccc(F)cc2)=NN(c2ccccc2)[C@@H]1CO,"inconclusive [inhibitor, single point]"
12,Cc1ccc(S(=O)(=O)NCC(=O)OCC(=O)N2CCN(C(=O)c3ccco3)CC2)cc1C,inactive
13,C[C@H](CO)N1C[C@H](C)[C@@H](CN(C)C(=O)Nc2ccc(C(C)(C)C)cc2)OCc2cnnn2CCCC1=O,"inconclusive [inhibitor, single point]"
14,COc1ccc(S(=O)(=O)N(Cc2ccccc2)Cc2nc3ccccc3c(=O)[nH]2)cc1,"inconclusive [inhibitor, single point]"
15,Cc1ccc(C2=NS(=O)(=O)N(C)C(C(=O)NCc3ccc(F)cc3)=C2)cc1,"inconclusive [inhibitor, partial curve]"
16,O=C(/C=C/c1cn(-c2ccccc2)nc1-c1ccc2c(c1)OCCO2)NCCO,inactive
17,COc1ccc(C(=O)c2coc3ccc(O)c(CN4CCOCC4)c23)cc1,"inconclusive [inhibitor, single point]"
18,CCOc1cc(/C=C/C(=O)c2ccc(C)cc2)ccc1OCC(=O)N(C)C,"inconclusive [inhibitor, partial curve, poor fit]"
19,CC(C)C(=O)Nc1ccc(NC(=O)c2ccccn2)cn1,"inconclusive [inhibitor, partial curve, poor fit]"
20,CN1CCN(c2ccc(C(=O)c3ccc(F)cc3)cc2)CC1,"inconclusive [inhibitor, partial curve, poor fit]"
21,CCOc1ccc2nc(N3C(=O)CNC3=S)sc2c1,"inconclusive [inhibitor, single point]"
